Test results published in PubChem BioAssay (Tox21).
Several values for one entry are separate records, joined by “and”; a condition that tells them apart may be missing. Identical values can stand only once. More than one record can exist for a structure, and the calls need not agree. Activity calls are given as the source filed them. Unless noted, calls come from the whole dose curve.

Assays:
[1] = qHTS assay for small molecule agonists of the p53 signaling pathway (AID 651631); settings: HCT-116 p53RE-bla reporter, beta-lactamase FRET ratio, 16 h; activation: at 73.3 µM (top of the series) unless noted; note: nearly all actives have a fitted effect of over 15% in size; note: potency is the fitted concentration of half-maximal effect; for activation: % is set by controls: 0 for no effect and ±100 for the full control effect
How it was run: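 HCT-116 cells carrying a stable p53 response element–beta-lactamase reporter were plated, rested 5 h at 37 °C, then exposed to compound in DMSO for 16 h at 37 °C; reporter activity was read as FRET substrate fluorescence after 2 h at room temperature.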

[2] = qHTS assay for small molecules that induce genotoxicity in human embryonic kidney cells expressing luciferase-tagged ATAD5 (AID 651632; active = well fitted curve in the direction sought with a large enough effect in the repeat runs; inconclusive = weak or mixed curves; inactive = no such curve, though single readings can be large; an effect the other way counts as inactive or inconclusive; note: nearly all actives have a fitted effect of over 15% in size; note: potency is the fitted concentration of half-maximal effect)
How it was run: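 Cells were seeded at 2,000 per well, dosed with compound, and incubated 16 hr at 37C in 5% CO2. Luciferase activity was then quantified after a 30 min room-temperature incubation with Amplite.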

[3] = qHTS assay for small molecule agonists of the p53 signaling pathway - cell viability (AID 651633); note: potency is the fitted concentration of half-maximal effect; nearly all actives have a fitted effect of over 30% in size
How it was run: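 Viability counter-read: CellTiter-Glo luminescence (30 min, room temperature) in the same p53RE-bla plates. These plates had been exposed to compounds for 16 h at 37 C.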

[4] = qHTS assay for small molecule disruptors of the mitochondrial membrane potential (AID 720635; active = well fitted curve in the direction sought with a large enough effect in the repeat runs; inconclusive = weak or mixed curves; inactive = no such curve, though single readings can be large; an effect the other way counts as inactive or inconclusive; note: potency is the fitted concentration of half-maximal effect; for ratio activity, negative = MMP loss: % is set by controls: 0 for no effect and ±100 for the full control effect); settings: HepG2 mitochondrial membrane potential, Mito-MPS dye ratio
How it was run: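 Mitochondrial membrane potential tracked with Mito-MPS dye, red aggregates (ex 540/em 590 nm) against green monomers (ex 490/em 535 nm). Compound treatment 1 hr at 37C, dye 30 min in HepG2.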

[5] = biological target: Glucocorticoid receptor (Homo sapiens) (UniProt P04150); experiment: qHTS assay to identify small molecule antagonists of the glucocorticoid receptor (GR) signaling pathway (AID 720692; active = well fitted inhibition curve with a large enough effect in the signal ratio in the repeat runs, not every such curve was filed as active; inconclusive = weak or mixed curves, or effect the other way; inactive = no such curve, though single readings can be large or run the other way; the % refers to the signal ratio; note: potency is the fitted concentration of half-maximal effect; for activity change, negative = inhibition: % is set by controls: 0 for no effect and ±100 for the full control effect); settings: GR-bla HeLa, beta-lactamase FRET ratio, dexamethasone-stimulated, 18 h; activity change, negative = inhibition: at 58.5 µM (top of the series) unless noted
Chain of UniProt P04150 (P04150 whole entry, looked up): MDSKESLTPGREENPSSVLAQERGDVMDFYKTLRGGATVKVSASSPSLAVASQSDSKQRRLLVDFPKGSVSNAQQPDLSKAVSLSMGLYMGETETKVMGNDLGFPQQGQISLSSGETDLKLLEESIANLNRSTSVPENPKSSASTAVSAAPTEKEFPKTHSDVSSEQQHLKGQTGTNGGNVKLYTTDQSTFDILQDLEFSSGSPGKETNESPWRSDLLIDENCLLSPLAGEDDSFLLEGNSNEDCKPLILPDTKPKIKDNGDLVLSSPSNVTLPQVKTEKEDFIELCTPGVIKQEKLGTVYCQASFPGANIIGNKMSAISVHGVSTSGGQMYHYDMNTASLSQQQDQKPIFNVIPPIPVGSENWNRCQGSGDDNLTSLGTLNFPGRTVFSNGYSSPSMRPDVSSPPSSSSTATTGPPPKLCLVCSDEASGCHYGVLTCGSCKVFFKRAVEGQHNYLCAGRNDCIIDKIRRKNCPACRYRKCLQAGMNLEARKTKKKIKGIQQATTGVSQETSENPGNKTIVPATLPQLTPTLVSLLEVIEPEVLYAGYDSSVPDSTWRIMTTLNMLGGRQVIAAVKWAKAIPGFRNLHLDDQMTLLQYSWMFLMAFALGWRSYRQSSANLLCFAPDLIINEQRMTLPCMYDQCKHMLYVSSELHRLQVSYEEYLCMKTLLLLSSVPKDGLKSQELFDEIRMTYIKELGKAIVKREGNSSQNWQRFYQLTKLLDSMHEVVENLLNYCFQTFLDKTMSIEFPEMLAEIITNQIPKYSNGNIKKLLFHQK
How it was run: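 Antagonism was scored as loss of dexamethasone-driven (5 nM final) reporter signal in HeLa cells bearing a glucocorticoid response element–beta-lactamase construct, after 18 h compound exposure at 37 C and 2 h FRET substrate loading.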

[6] = qHTS assay to identify small molecule antagonists of the glucocorticoid receptor (GR) signaling pathway - cell viability counter screen (AID 720693; active = well fitted curve in the direction sought with a large enough effect in the repeat runs; inconclusive = weak or mixed curves; inactive = no such curve, though single readings can be large; an effect the other way counts as inactive or inconclusive; note: nearly all actives have a fitted effect of over 55% in size; note: potency is the fitted concentration of half-maximal effect); settings: GR-bla HeLa viability, CellTiter-Glo luminescence, 18 h, with 5 nM dexamethasone present; viability change, negative = cytotoxic: at 58.5 µM (top of the series)
[7] = qHTS assay for small molecules that induce genotoxicity in human embryonic kidney cells expressing luciferase-tagged ATAD5 - cell viability (AID 651634); note: potency is the fitted concentration of half-maximal effect; nearly all actives have a fitted effect of over 25% in size
How it was run: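 Cells (HEK293T, luciferase-tagged ATAD5) are seeded at 2,000 per well, dosed with compound or DMSO vehicle, and incubated 15.5 hr at 37C and 5% CO2. CellTiter-Fluor is added for 30 min before fluorescence is measured.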

[8] = biological target: Glucocorticoid receptor (Homo sapiens) (UniProt P04150); experiment: qHTS assay to identify small molecule agonists of the glucocorticoid receptor (GR) signaling pathway (AID 720691; active = well fitted activation curve with a large enough effect in the signal ratio in the repeat runs, not every such curve was filed as active; inconclusive = weak or mixed curves, or effect the other way; inactive = no such curve, though single readings can be large or run the other way; the % refers to the signal ratio; note: % is set by controls: 0 for no effect and ±100 for the full control effect); settings: GR-bla HeLa, beta-lactamase reporter ratio, 18 h; activation: at 62.4 µM (top of the series) unless noted
How it was run: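 Steps: seed GR-bla HeLa cells, incubate 4 h at 37 C/5% CO2; pin-transfer DMSO-dissolved compounds; incubate 18 h at 37 C; add LiveBLAzer B/G FRET substrate; after 2 h at room temperature, measure fluorescence.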

[9] = ratio activity, negative = MMP loss: at 83.2 µM (top of the series) unless noted
Tags give direction and shape of the fitted curve or compound fluorescence and quenching.

Q: What does the source list for O=c1[nH]cc(F)c(=O)[nH]1?
A: Potency [1]: active: 4.22 µM and active: 3.57 µM and active: 1.57 µM; Potency [2]: inconclusive: 7.87 µM [activator, full curve, poor fit]; Potency [3]: active: 1.06 µM and inconclusive: 357 nM [cytotoxic, full curve, poor fit] and active: 991 nM; Potency [4, 9]: inactive

Q: Which Potency [1] does the source give for CCCCCCCC/C=C\CCCCCCCCN here?
A: inactive

Q: With O=C(O)CCCCCCCCCCCC(=O)O as the compound, how does the Potency [1] read?
A: inactive

Q: For CCOC(=O)C(C)(C)C, which Potency [1] is on record?
A: inconclusive: 27.5 µM [activator, single point]

Q: With CCCCC1(COC(=O)CCC(=O)O)C(=O)N(c2ccccc2)N(c2ccccc2)C1=O as the compound, how does the Potency [1] read?
A: inconclusive: 34.2 µM [fluorescent, partial curve, poor fit]

Q: For CC(C)C(=O)c1c(C(C)C)nn2ccccc12, which Potency [1] is on record?
A: inactive

Q: For CCN(CC)C(=O)N(CC)CC, which Potency [1] is on record?
A: inactive

Q: Which activation [1] does the source give for CN(C)C=O here?
A: inconclusive: -1.87% [at 95.1 µM]

Q: Which Potency [1] does the source give for CCCCCC/C=C/CCCCCCCC(=O)O here?
A: inconclusive: 54.5 µM [rising, partial curve, poor fit]

Q: And the activation [1]?
A: inconclusive: 6.81%

Q: And the Potency [5]?
A: inactive

Q: What about the Potency [6] of the same compound?
A: inactive

Q: Which Potency [1] does the source give for COc1cc2c(cc1OC)C(C(C(=O)N(CCc1ccc(OC)c(OC)c1OC)CCc1ccc(OC)c(OC)c1OC)c1ccccc1)=NCC2 (stereo unspecified) here?
A: inconclusive: 29.8 µM [falling, partial curve]

Q: And the Potency [2]?
A: inactive

Q: What about the Potency [7] of the same compound?
A: inconclusive: 26.6 µM [falling, single point]

Q: And the Potency [4, 9]?
A: inconclusive: 3.35 µM [activator, full curve]

Q: With CCOC(=O)C(C)O (stereo unspecified) as the compound, how does the Potency [1] read?
A: inactive

Q: Which Potency [1] does the source give for CC1=Nc2ccc3ccccc3c2C1(C)C here?
A: inconclusive: 77 µM [fluorescent, partial curve, poor fit]

Q: For COC(=O)N/N=C/c1c[n+]([O-])c2ccccc2[n+]1[O-], which Potency [1] is on record?
A: inconclusive: 33.5 µM [activator, partial curve, poor fit]

Q: Which Potency [1] does the source give for O=C1NC(=O)[C@@H]2CC=CC[C@H]12 here?
A: inconclusive: 3.86 µM [rising, partial curve, poor fit]

Q: Which Potency [1] does the source give for O=C(O)CCCc1ccccc1 here?
A: inactive

Q: Which Potency [1] does the source give for NC(=O)c1cnccn1 here?
A: inactive

Q: Which Potency [1] does the source give for COC(=O)Nc1nc2ccc(C(=O)c3cccs3)cc2[nH]1 here?
A: active: 0.133 µM

Q: And the Potency [2]?
A: active: 2.37 µM

Q: What about the Potency [4, 9] of the same compound?
A: active: 2.37 µM

Q: And the activation [8]?
A: inconclusive: 2.69% [phenotype inactive]

Q: What about the Potency [5] of the same compound?
A: inconclusive: 1.9 µM [falling, partial curve, poor fit]

Q: What about the Potency [6] of the same compound?
A: inconclusive: 2.68 µM [cytotoxic, full curve]

Q: Which results are given for COc1ccc(/C=C/S(=O)(=O)NC(=O)c2ccc(C)cc2Cl)cc1?
A: Potency [1]: active: 30.6 µM; Potency [2]: active: 21.7 µM; Potency [4, 9]: active: 61.1 µM; activation [8]: inconclusive: 0.243%; Potency [5]: inconclusive: 1.1 µM [activator, full curve, poor fit]

Q: What does the source list for COC(=O)Nc1nc2ccc(Sc3ccccc3)cc2[nH]1?
A: Potency [1]: active: 114 nM and active: 68.6 nM; Potency [2]: active: 4.03 µM and active: 12.2 µM; Potency [4, 9]: inconclusive: 1.27 µM [inhibitor, full curve, poor fit] and active: 4.33 µM; activation [8]: active: 2.86% [inconclusive] [at 29.2 µM]; Potency [5]: inconclusive: 723 nM [activator, full curve] and inconclusive: 1.95 µM [activator, full curve]; Potency [6]: inconclusive: 0.0723 µM [rising, full curve, poor fit]

Q: What does the source list for Nc1nc(Cl)nc2c1ncn2[C@@H]1O[C@H](CO)[C@@H](O)[C@@H]1F?
A: Potency [1]: active: 0.0841 µM; Potency [2]: inconclusive: 0.531 µM [activator, full curve, poor fit]; Potency [4, 9]: inconclusive: 11.9 µM [inhibitor, single point]; Potency [6]: inconclusive: 0.0535 µM [rising, full curve, poor fit]

Q: For Nc1nc(Cl)nc2c1ncn2[C@H]1C[C@H](O)[C@@H](CO)O1, which Potency [1] is on record?
A: active: 841 nM and active: 341 nM

Q: And the Potency [2]?
A: inconclusive: 9.44 µM [activator, partial curve, poor fit]

Q: And the ratio activity, negative = MMP loss ([4]; at 83.2 µM (top of the series))?
A: inactive: 28.8%

Q: What about the ratio activity, negative = MMP loss [4, 9] of the same compound?
A: inconclusive: 7.02%

Q: What about the activity change, negative = inhibition [5] of the same compound?
A: inconclusive: 5.29% and inconclusive: 17.4%

Q: For CN(CCCN1c2ccccc2CCc2ccccc21)CC(=O)c1ccc(Cl)cc1, which Potency [1] is on record?
A: inconclusive: 33.5 µM [activator]

Q: And the Potency [2]?
A: inconclusive: 37.6 µM [activator, partial curve, poor fit]

Q: And the Potency [4, 9]?
A: inconclusive: 13.3 µM [activator]

Q: What about the Potency [5] of the same compound?
A: inconclusive: 26.8 µM [inhibitor, single point]

Q: And the Potency [6]?
A: inconclusive: 26.8 µM [cytotoxic, single point]
